Reference: the supplement of paper PMC4967469
pIC50: −log10 of the molar value. The IC50 comes from the fitted curve, where viability falls to half of the control; where the fit passes the top or lowest dose, that dose stands as a limit. For AUC the same curve is integrated over the 256-fold range of doses and scaled to a fraction; it is 1 without any effect and falls as sensitivity rises. For some assays here: The top dose, if marked as inferred, comes from the curve model; the source does not state it.

Columns and labels:
Assay in all cases: Viability of human cancer cell lines after 72 h of drug (GDSC screen)
CI-1040 = compound: O=C(NOCC1CC1)c1ccc(F)c(F)c1Nc1ccc(I)cc1Cl [CI-1040]; conditions: top dose 10 µM; top dose inferred
Method: (§1)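 Human cancer cell lines in 384-well plates, medium with 10% serum, drug for 72 h over a 256-fold dose range (nine 2-fold or five 4-fold steps up to the top dose). Adherent lines were fixed and stained with the nucleic acid dye Syto60, suspension lines read with resazurin; signal relative to control wells, capped at 0 and 100%. One two-parameter sigmoid per drug and line, fitted in a mixed model over all curves with the slope shared within a line.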

Temozolomide = compound: Cn1nnc2c(C(N)=O)ncn2c1=O [Temozolomide]; conditions: top dose 30 µM
Method: as §1

ZG-10 = compound: CN(C)C/C=C/C(=O)Nc1ccc(C(=O)Nc2cccc(Nc3nccc(-c4cccnc4)n3)c2)cc1 [ZG-10]; conditions: top dose 10 µM; top dose inferred
Method: as §1

IPA-3 = compound: Oc1ccc2ccccc2c1SSc1c(O)ccc2ccccc12 [IPA-3]; conditions: top dose 32 µM; top dose inferred
Method: as §1

Tubastatin A = compound: CN1CCc2c(c3ccccc3n2Cc2ccc(C(=O)NO)cc2)C1 [Tubastatin A]; conditions: top dose 20 µM
Method: as §1

XL-880 = compound: COc1cc2c(Oc3ccc(NC(=O)C4(C(=O)Nc5ccc(F)cc5)CC4)cc3F)ccnc2cc1OCCCN1CCOCC1 [XL-880]; conditions: top dose 5.12 µM; top dose inferred
Method: as §1

Cell Line	AUC (CI-1040)	pIC50 (CI-1040)	AUC (Temozolomide)	pIC50 (Temozolomide)	AUC (ZG-10)	pIC50 (ZG-10)	AUC (IPA-3)	pIC50 (IPA-3)	AUC (Tubastatin A)	pIC50 (Tubastatin A)	AUC (XL-880)	pIC50 (XL-880)
H2795 (mesothelioma, adherent)	0.652	5.79	0.986	< 4.52	0.68	5.70	0.913	< 4.49	0.909	< 4.70	0.525	6.43
DOK (head and neck, adherent)	0.44	6.40	0.97	< 4.52	0.753	5.30	0.953	< 4.49	0.974	< 4.70	0.803	5.37
NCI-H2291 (lung adenocarcinoma, adherent)	0.602	–	0.968	< 4.52	0.808	5.11	0.968	< 4.49	0.984	< 4.70	0.984	< 5.29
VMRC-MELG (melanoma, adherent)	0.954	< 5.00	0.988	< 4.52	0.94	< 5.00	0.967	< 4.49	0.98	< 4.70	0.538	6.39
TOV-21G (ovary, adherent)	0.806	5.25	0.983	< 4.52	0.673	5.70	0.802	4.76	0.985	< 4.70	0.768	5.68
SW626 (ovary, adherent)	0.749	5.42	0.981	< 4.52	0.739	5.46	0.793	4.75	0.949	< 4.70	0.674	5.97
MFE-280 (endometrium, adherent)	0.94	< 5.00	0.98	< 4.52	0.423	6.44	0.958	< 4.49	0.935	< 4.70	0.519	6.44
CS1 (bone, adherent)	0.902	< 5.00	0.944	< 4.52	0.731	5.51	0.984	< 4.49	0.963	< 4.70	0.517	6.45
LK-2 (lung squamous cell carcinoma, adherent)	0.989	< 5.00	0.911	< 4.52	0.782	5.41	0.8	4.84	0.942	< 4.70	0.555	6.35
SKN (uterus, adherent)	0.778	5.31	0.896	< 4.52	0.692	5.61	0.872	< 4.49	0.961	< 4.70	0.866	< 5.29
NCI-H1993 (lung adenocarcinoma, adherent)	0.983	< 5.00	0.981	< 4.52	0.792	5.21	0.945	< 4.49	0.964	< 4.70	0.757	5.64
G-401 (kidney, adherent)	0.879	< 5.00	0.981	< 4.52	0.909	< 5.00	0.68	5.17	0.886	< 4.70	0.465	6.60
SK-MEL-30 (melanoma, adherent)	0.817	5.22	0.984	< 4.52	0.742	5.49	0.833	4.65	0.904	< 4.70	0.712	5.88
NCI-H1568 (lung adenocarcinoma, adherent)	0.969	< 5.00	0.965	< 4.52	0.796	5.22	0.976	< 4.49	0.982	< 4.70	0.804	5.47
IHH-4 (thyroid, semi-adherent)	0.626	5.89	0.992	< 4.52	0.83	5.33	0.538	5.60	0.984	< 4.70	0.697	6.00
PCI-4B (head and neck, adherent)	0.644	5.82	0.981	< 4.52	0.7	5.66	0.806	4.82	0.889	< 4.70	0.639	6.12
PANC-02-03 (pancreas, adherent)	0.479	6.27	0.958	< 4.52	0.787	5.27	0.922	< 4.49	0.976	< 4.70	0.515	6.45
H2595 (mesothelioma, adherent)	0.924	< 5.00	0.978	< 4.52	0.891	< 5.00	0.981	< 4.49	0.918	< 4.70	0.887	< 5.29
